Data from PubChem BioAssay AID1347073 (National Center for Advancing Translational Sciences (NCATS), 2019).
Among all 45,000 compounds or so, about 200 (0.44%) were called active. About 7% were inconclusive and are not listed. Calls come from the whole dose curve; as a rule, active = well fitted activation curve with a large enough effect; inconclusive = small, poorly fitted or top-dose-only effect; inactive = no such curve, though single readings can be large or run the other way. The list shows a part of the results.

Assay: qHTS of TDP-43 Inhibitors: NCGC Sytravon Library Screen; note: 0% is about no effect; nearly all actives have a fitted effect of over 55% in size
Conditions: yeast TDP-43 toxicity rescue, BacTiter-Glo growth, 24 h; series mostly up to 46.1 µM; growth rescue (activation): at the top concentration
In short: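 TDP-43-expressing yeast, pregrown in raffinose, seeded at OD600 0.02 in galactose medium with compound for 24 hr at 30 deg C. Growth read by BacTiter-Glo luminescence, so rescue of toxicity appears as activation.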

Compound | growth rescue (activation) | Potency
COc1ccc(N=CC2=C(O)CC(c3ccccc3)CC2=O)c(OC)c1 (centres undefined) | inactive: -10.7% | –
CN(CCO)c1cc(N(C)CCO)c([N+](=O)[O-])cc1[N+](=O)[O-] | inactive: -23.9% | –
COc1cc(CN2CCNC(=O)C2CC(=O)NCCc2ncccc2C)cc(OC)c1 (centres undefined) | inactive: -11% | –
Cc1cc(C)cc(CN2C(=O)NC3(CCCCCC3)C2=O)c1 | inactive: 21.7% | –
COc1cccc(/C=C(/C(=O)OCC(=O)NCC2CCCO2)c2ccccc2)c1 (centres undefined) | inactive: 9.79% | –
N#Cc1ccc(NC(=O)Cn2cnc([N+](=O)[O-])c2)cc1 | inactive: 2.74% | –
Cc1[nH]c2ccccc2c1N=Nc1cc(C(=O)O)cc(C(=O)O)c1 | inactive: -7.73% | –
CCn1c(SCc2nc3ccccc3c(=O)[nH]2)nnc1C(C)NC(=O)c1ccccc1 (centres undefined) | inactive: 8.16% | –
CC1(C)C2([N+](=O)[O-])CN3CC1([N+](=O)[O-])CN(C2)C3C(O)C(O)C(O)CO (centres undefined) | inactive: 2.48% | –
Cc1cc(/C=C(\C#N)C(=O)O)c(C)n1C1CC1 | inactive: -3.51% | –
CCOC(=O)c1c(NC(=O)CNC2CCCCC2)sc(C)c1C | inactive: -12.6% | –
O=C(COC(=O)CCC(=O)c1ccc(F)cc1)NC1CCCCC1 | inactive: -1.7% | –
O=C(CSc1nnc(NC(=O)c2c(F)cccc2F)s1)Nc1ccc(F)cc1 | inactive: 19.1% | –
O=c1cc(O)c2ccccc2[nH]1 | inactive: -10.4% | –
CC(C)(C)NC(=O)C(c1c[nH]c2ccccc12)N(C(=O)Cn1nnc(-c2ccc(Cl)cc2)n1)c1ccccc1F (centres undefined) | inactive: -7.04% | –
O=C(Nc1ccc(F)c(F)c1)C1CCCN(S(=O)(=O)c2cccc3nonc23)C1 (centres undefined) | inactive: 0.873% | –
COc1cc(/C=C/C(=O)OCC(=O)NCCN2C(=O)CSC2=O)ccc1OC(F)F | inactive: -8.44% | –
CCN(CC)CCCCN1c2ccccc2Sc2ccccc21 | inactive: 6.21% | –
CN(C)S(=O)(=O)c1ccc(C(=O)OC2CCOC2=O)cc1 (centres undefined) | inactive: 3.15% | –
COC(=O)c1ccc(NC(=O)CSc2ccccc2)cc1 | inactive: 24.3% | –
Cc1nc2ccccn2c1-c1csc(Nc2cccc(C(=O)O)c2)n1 | inactive: 5.79% | –
CC(Nc1ncnc2ccccc12)c1ccccc1 (centres undefined) | inactive: 3.72% | –
CCOP(=O)(OCC)C(NC(=O)Nc1ccccc1)C(N)=O (centres undefined) | inactive: 8.8% | –

Compound | growth rescue (activation) | Potency
Cn1cnc([N+](=O)[O-])c1SCC(O)CCl (centres undefined) | inactive: 12.1% | –
COc1ccccc1C(=O)NC(=S)Nc1cc(C(=O)O)ccc1C | inactive: -1.61% | –
COC(=O)c1ccc(CNC(=O)C(C)N=C2NS(=O)(=O)c3ccccc32)cc1 (centres undefined) | inactive: 8.52% | –
COc1ccc(NC(=O)CSc2nc(N)c3cc4c(nc3n2)CC(C)(C)OC4)cc1 | inactive: -24% | –
CCC/C(=N\NC(=O)c1ccc(CSc2nncn2C)cc1)c1ccccc1 | inactive: -1.94% | –
Cn1c(SCC(=O)N/N=C/c2cc([N+](=O)[O-])ccc2O)nnc1-c1ccccc1 | inactive: 26.5% | –
CC(=O)Oc1ccc(C(=O)Nc2ccccc2C(=O)N2CCCCC2)cc1 | inactive: 11.8% | –
Cc1cc(=O)n2nc(N3CCCC3C(=O)NCCCN3CC(C)CC(C)C3)sc2n1 (centres undefined) | inactive: -8.43% | –
CC1=C(C(=O)OCc2ccc(C)cc2)C(c2ccc(O)c([N+](=O)[O-])c2)NC(=O)N1 (centres undefined) | inactive: 0.763% | –
O=S(=O)(c1ccc(Cl)cc1)N1CCN(Cc2cccnc2)CC1 | inactive: 3.79% | –
Cc1ccc(N2C(=O)N(CC(=O)Nc3ccccc3C(F)(F)F)C(=O)C2C)cc1 (centres undefined) | inactive: 25.2% | –
CSc1ccc(/C=N/NC(=O)c2cccs2)cc1 | inactive: 4.31% | –
NC(=S)N/N=C1\CC(c2ccc3c(c2)OCCCO3)Oc2ccc(F)cc21 (centres undefined) | inactive: 8.52% | –
O=C(c1ccc(-c2cccc(C(F)(F)F)c2)o1)N1CCN(c2ccccc2)CC1 | inactive: 21% | –
COCCN1C=C(C(=O)OC)C(c2ccccc2C(F)(F)F)C(C(=O)OC)=C1 | inactive: 44.5% | –
CCN1CCN(c2cc(C)c3cc(NC(=S)N4CCCC4)ccc3n2)CC1 | inactive: 4.28% | –
Cc1cc(C)c(C#N)c(SCC(=O)Nc2ccccc2)n1 | inactive: 0.609% | –
CC(C)(C)NC(=O)NC(=O)CN1C(=O)NC(c2ccccc2)(c2ccccc2)C1=O | inactive: -0.702% | –
COC(=O)N/N=C/c1ccc(OC(=O)/C=C/c2ccco2)cc1 | inactive: -12.2% | –
Cc1ccc(N/C=C(\C#N)c2ccc(OCCCF)cc2)cc1 | inactive: 35.4% | –
CSc1ccccc1OCc1cc(C(=O)N2CCNC(=O)C2)no1 | inactive: 28% | –
COc1ccccc1-n1cnnc1SCC(=O)NCC1CCCO1 (centres undefined) | inactive: -9.45% | –
CC(C)(C)c1ccc(OCC(=O)NNC(=O)c2cccnc2)cc1 | inactive: -10.9% | –

Compound | growth rescue (activation) | Potency
CSc1nc2ccccc2c(=O)n1C1CCCCC1 | inactive: 9.02% | –
CCCNc1nc(NCC)nc(OC)n1 | inactive: -4.99% | –
COc1ccc(-n2nc(C(=O)NCC(=O)NCCC3=CCCCC3)c3ccccc3c2=O)cc1OC | inactive: 9.51% | –
NS(=O)(=O)c1ccc(NC(=O)COC(=O)c2ccc(S(=O)(=O)N3CCOCC3)cc2)cc1 | inactive: -5.74% | –
Cc1nc(-c2cccc(S(=O)(=O)N3CCCCC3)c2)cs1 | inactive: 4.75% | –
O=c1[nH]cc(N(CCO)CCO)c(=O)[nH]1 | inactive: 9.95% | –
Cn1c(Oc2ccncc2)nc2cc(-c3ccsc3)sc2c1=O | inactive: 0.981% | –
COc1cc(/C=C/C(=O)Nc2ccncc2)cc(OC)c1OC | inactive: 3.35% | –
COCCC(=O)N1CCCC(C(=O)c2ccc(Oc3ccccc3)cc2)C1 (centres undefined) | inactive: 33.5% | –
Cc1ccc(S(=O)(=O)N2CCCC(C(=O)Nc3ccc(C(=O)O)cc3)C2)cc1Cl (centres undefined) | inactive: 0.401% | –
CCN(CC(=O)Nc1ccc2c(c1)OCO2)S(=O)(=O)c1ccccc1 | inactive: 19.3% | –
CCc1nn(CC(=O)NCCCN(CC)CC)c(=O)c2cc3sc(C)cc3n12 | – | inactive
Nc1nc(Nc2cccc(Cl)c2)nc(NCc2ccco2)c1[N+](=O)[O-] | inactive: 17.3% | –
CCOc1ccc(N(CC(=O)NC2CCCCC2)C(=O)CCC(=O)Nc2nc(C)cs2)cc1 | inactive: 10.8% | –
O=C(CSc1nccc2ccccc12)N1CCN(Cc2ccc3c(c2)OCO3)CC1 | inactive: -0.351% | –
O=C1CC2(CCCC2)C(=O)N1CN1CCN(S(=O)(=O)c2ccc(F)cc2F)CC1 | inactive: 12% | –
Cc1ccc(/C=N/NC(=O)C(O)c2ccccc2)o1 (centres undefined) | inactive: 9.49% | –
C=CCN1C(=NC(=O)CCC(=O)O)SC2CS(=O)(=O)CC21 (centres undefined) | inactive: -25.2% | –
O=C(Nc1ccccc1N1CCCCC1)c1ccc(OC(F)F)cc1 | inactive: 25.7% | –
CCOc1nc(C)cc(C)c1S(=O)(=O)c1ccc(Cl)cc1 | inactive: 9.97% | –
O=C(NCCCN1CCOCC1)C(=O)NCC1CCCO1 (centres undefined) | inactive: 8.03% | –
O=C(CN1C(=O)c2ccccc2S1(=O)=O)NCCSCc1cccc(Cl)c1 | inactive: -15.5% | –
CC(C)Oc1cc(F)ccc1-c1cc(C(=O)NCc2cccnc2)[nH]n1 | inactive: 19.8% | –
